Assay results: PubChem BioAssay AID504648 (National Center for Advancing Translational Sciences (NCATS), 2011)
The whole screen tested about 390,000 compounds, of which about 610 (0.16%) were called active. Inconclusive results (about 4%) are left out. Calls come from the whole dose curve; as a rule, active = well fitted inhibition curve with a large enough effect; inconclusive = small, poorly fitted or top-dose-only effect, or effect the other way, or another doubt; inactive = no such curve, though single readings can be large or run the other way. The list shows a part of the results, in another mix than the full data.

Test: Nrf2 qHTS screen for inhibitors: counterscreen for cytotoxicity
Settings: A549 ARE-Fluc cells, CellTiter-Fluor viability, 18-24 h; series mostly up to 46 µM; activity change, negative = cytotoxicity: at the top concentration
Method in brief: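 Cytotoxicity counterscreen: CellTiter-Fluor fluorescence was measured in A549 ARE_Fluc cells after 18-24 h of compound exposure in a concentration series. The subsequent BugLite luminescent read reports ARE-luciferase activity.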
% is set by controls: 0 for no effect and ±100 for the full control effect; potency is the fitted concentration of half-maximal effect.

Row | Structure (SMILES) | activity change, negative = cytotoxicity | Potency
1 | O=C(C[C@H]1C/C=C\C[C@@H](Cc2ccc(F)cc2)C(=O)O[C@H](c2ccccc2)CNC1=O)N[C@@H](CO)Cc1ccccc1 | inactive: -3.1% | 
2 | COc1ccc(S(=O)(=O)Nc2cccc(-c3ccc(N4CCCCCC4)nn3)c2)cc1OC | inactive: -21.8% | 
3 | Cc1ccc(Nc2c(-c3ccc(N4CCOCC4)cc3)nc3ncccn23)cc1 | inactive: -1.65% | 
4 | O=C1N[C@@H](c2ccccc2)COC(=O)[C@@H](Cc2ccc(F)cc2)CC/C=C/C[C@@H]1CC(=O)N(CCO)Cc1ccccc1 | inactive: -25% | 
5 | N=c1c2c(ccn1Cc1ccccc1)Oc1ccc3ccccc3c1C2c1ccccc1 (configuration not stated) |  | active: 11.6 µM
6 | COc1cc(/C=C/c2[nH]c(=O)[nH]c(=O)c2[N+](=O)[O-])cc([N+](=O)[O-])c1O |  | active: 16.4 µM
7 | O=S(=O)(NCC(Nc1ccc(Cl)cc1)c1ccccc1)c1ccccc1 (configuration not stated) | inactive: -10.3% | 
8 | Cc1noc(NS(=O)(=O)c2ccc(N/C=C/C(=O)c3ccncc3)cc2)c1C | inactive: -28.5% | 
9 | Nc1ccc(S(=O)(=O)Nc2ccnn2-c2ccccc2)cc1 |  | inactive
10 | O=C(CCCN1C(=O)/C(=C\c2cccs2)SC1=S)NNC(=O)c1ccncc1 | inactive: -3.64% | 
11 | C=CCC[C@@H](Cc1ccc(F)cc1)C(=O)OC[C@H](Cc1c[nH]c2ccccc12)NC(=O)[C@@H](CC=C)CC(=O)N[C@H](CO)Cc1ccccc1 | inactive: -9.96% | 
12 | CC(C)c1ccc(NC(=O)CCNS(=O)(=O)c2cccc3nsnc23)cc1 | inactive: 0.993% | 
13 | COc1ccc(C2=Nn3c(nnc3-c3ccc(OC)cc3)SC2)cc1 | inactive: -4% | 
14 | Cc1ccc(NC(=O)CSc2nc(-c3ccco3)cc(C(F)(F)F)n2)cc1C | inactive: -12.2% | 
15 | O=C1c2ccc3c4c(ccc(c24)C(=O)N1CCCCO)C(=O)N(CCCCO)C3=O |  | active: 18.4 µM
16 | O=C(C1=C[C@@H](C2CCCCC2)C[C@@H](OCCCCO)O1)N1CCN(Cc2ccc3c(c2)OCO3)CC1 | inactive: -1.53% | 
17 | CC(C)(C)OC(=O)C[C@@H]1C/C=C\C[C@H](CC(=O)N(CCO)Cc2ccccc2)C(=O)NC[C@H](c2ccccc2)OC1=O | inactive: 1.11% | 
18 | C=CCC[C@@H](Cc1ccc(F)cc1)C(=O)OC[C@@H](C)NC(=O)[C@H](CC=C)CC(=O)N(CCO)Cc1ccccc1 | inactive: -8.4% | 
19 | C=CC[C@@H](CC(=O)N(CCO)Cc1ccccc1)C(=O)N[C@@H](COC(=O)[C@@H](CC=C)CC(=O)OC(C)(C)C)Cc1c[nH]c2ccccc12 | inactive: -18.4% | 
20 | C=CC[C@H](CC(=O)N(CCO)Cc1ccccc1)C(=O)N[C@H](COC(=O)[C@@H](CC=C)Cc1ccc(F)cc1)C(C)(C)C | inactive: -6.05% | 
21 | CNc1c2cccc(C)c2nc2c(C(=O)NCCN(C)C)cccc12 |  | active: 4.61 µM
22 | O=C(CCl)Nc1cc2[nH]c(=O)[nH]c2cc1Br |  | active: 23.1 µM

Row | Structure (SMILES) | activity change, negative = cytotoxicity | Potency
23 | O=C(C[C@H]1C/C=C\CC[C@@H](Cc2ccc(F)cc2)C(=O)O[C@H](c2ccccc2)CNC1=O)N[C@H](CO)Cc1ccccc1 | inactive: 3.44% | 
24 | CCCCCCCCCCCCCCCCn1cc[n+](C)c1 | inactive: -13.2% | 
25 | C/C(=N/Nc1ccc(C(=O)c2c(C)cc3ccccn23)cc1[N+](=O)[O-])c1ccc(O)cc1 | inactive: 5.55% | 
26 | C/C(Sc1nnc(Cc2ccccc2)o1)=C(/O)c1ccccc1 | inactive: -2.47% | 
27 | CC(C)(C)OC(=O)C[C@H]1C/C=C\C[C@@H](CC(=O)N(CCO)Cc2ccccc2)C(=O)NC[C@@H](c2ccccc2)OC1=O | inactive: -8.73% | 
28 | CN(C)CCCNc1c2c(nc3ccccc13)CCC2 |  | active: 13 µM
29 | O=C(Nc1ccccc1C(=O)Nc1nnc(C(F)(F)F)s1)c1ccccc1 |  | active: 13 µM
30 | Cc1cc(C)c2oc(C(=O)N(Cc3ccc(F)cc3)C3CCS(=O)(=O)C3)cc(=O)c2c1 (configuration not stated) | inactive: -14.3% | 
31 | C[C@]12C(=O)N(c3ccc(C(F)(F)F)cc3)C(=O)N1[C@@H]1c3ccccc3OC[C@@H]1[C@H]2c1ccccc1 | inactive: 3.82% | 
32 | CC(=O)N1CCc2c(sc(NC(=O)c3ccc([N+](=O)[O-])o3)c2C#N)C1 |  | active: 20.6 µM
33 | O=C(C[C@@H]1C/C=C/CC[C@@H](Cc2ccc(F)cc2)C(=O)OC[C@H](Cc2ccccc2)NC1=O)N[C@H](CO)Cc1ccccc1 | inactive: -7.11% | 
34 | CCN(c1ccc(OC)cc1)S(=O)(=O)c1nnc(NC(=O)c2ccccc2Cl)s1 | inactive: -15.7% | 
35 | O=Nc1c(-c2c(O)[nH]c3cc(Br)ccc23)[nH]c2ccccc12 |  | active: 20.6 µM
36 | O=C(CCN1C(=O)/C(=C\c2ccccc2)SC1=S)NCCCN1CCOCC1 | inactive: -0.597% | 
37 | CCN(CC)CCOc1ccc(/C(=C(\Cl)c2ccccc2)c2ccccc2)cc1 | inactive: -22.5% | 
38 | Cn1cccc1/C=C(\C#N)C(N)=S | inactive: -6.47% | 
39 | CCOc1ccc(Nc2oc(-c3ccc(Cl)cc3)nc2C#N)cc1 |  | active: 20.6 µM
40 | NS(=O)(=O)c1ccc(N/N=C/c2cn(-c3ccccc3)nc2-c2cccs2)c([N+](=O)[O-])c1 |  | active: 13 µM
41 | C=CC[C@@H](CC(=O)N[C@@H](CO)Cc1ccccc1)C(=O)N[C@H](COC(=O)[C@@H](CC=C)Cc1ccc(F)cc1)C(C)(C)C | inactive: -24.9% | 
42 | C=CCC[C@@H](Cc1ccc(F)cc1)C(=O)OC[C@H](C)NC(=O)[C@@H](CC=C)CC(=O)N[C@@H](CO)Cc1ccccc1 | inactive: 0.56% | 
43 | O=C1/C(=C/c2cccnc2)SC(=S)N1C1CCS(=O)(=O)C1 (configuration not stated) | inactive: -15.1% | 
44 | COc1ccc(NC(=O)CCNS(=O)(=O)c2cccc3nsnc23)cc1OC | inactive: 4.24% | 

Row | Structure (SMILES) | activity change, negative = cytotoxicity | Potency
45 | C=CCC[C@@H](Cc1ccc(F)cc1)C(=O)OC[C@@H](C)NC(=O)[C@@H](CC=C)CC(=O)N[C@H](CO)Cc1ccccc1 | inactive: -10.5% | 
46 | CC(C)(C)OC(=O)C[C@@H]1C/C=C\C[C@H](CC(=O)N(CCO)Cc2ccccc2)C(=O)NC[C@@H](c2ccccc2)OC1=O | inactive: -7.95% | 
47 | CCCCNC(=O)COC(=O)c1c2c(nc3ccccc13)/C(=C/c1cccs1)CC2 | inactive: -1.39% | 
48 | O=C(N/N=C/c1ccc([N+](=O)[O-])o1)c1ccc(O)cc1 |  | active: 20.6 µM
49 | O=C1NC[C@@H](c2ccccc2)OC(=O)[C@H](Cc2ccc(F)cc2)C/C=C\C[C@H]1CC(=O)N(CCO)Cc1ccccc1 | inactive: -14.6% | 
50 | CC(=O)Nc1c(I)c(NC(C)=O)c(I)c(C(=O)O)c1I | inactive: -9.13% | 
51 | CCc1cc(C(N)=S)ccn1 | inactive: -0.595% | 
52 | O=C(NCc1cccnc1)/C(=C/c1ccc(-c2cccc(Cl)c2)o1)S(=O)(=O)c1ccccc1 | inactive: 1.32% | 
53 | CC(C)n1cc(/C=C2\NC(=O)N(c3cccc(Cl)c3)C2=O)c2ccccc21 | inactive: -11% | 
54 | CCOC(=O)N1CCN(C(=O)c2ccc3c(c2)N(Cc2cc(C)ccc2C)C(=O)c2ccccc2S3=O)CC1 (configuration not stated) | inactive: -13% | 
55 | C=CC[C@@H](CC(=O)N[C@@H](CO)Cc1ccccc1)C(=O)N[C@@H](C)COC(=O)[C@@H](CC=C)Cc1ccc(F)cc1 | inactive: -1.74% | 
56 | C[C@@]12C(=O)N(c3ccc(C(F)(F)F)cc3)C(=O)N1[C@@H]1c3ccccc3OC[C@@H]1[C@H]2c1ccccc1 | inactive: 10% | 
57 | C=CCC[C@@H](Cc1ccc(F)cc1)C(=O)OC[C@@H](Cc1c[nH]c2ccccc12)NC(=O)[C@@H](CC=C)CC(=O)N[C@@H](CO)Cc1ccccc1 | inactive: -6.75% | 
58 | CCc1nnc(NC(=O)c2ccc(NS(=O)(=O)c3ccccc3)cc2)s1 | inactive: 6.43% | 
59 | C[C@@H](C(=O)N=c1sc2ccccc2n1C)N1C(=O)C2CC=CCC2C1=O (some centres not stated) | inactive: 3.01% | 
60 | C=CC[C@@H](CC(=O)N(CCO)Cc1ccccc1)C(=O)N[C@H](COC(=O)[C@@H](CC=C)CC(=O)OC(C)(C)C)Cc1ccccc1 | inactive: -5.08% | 
61 | CCCCN(CC)CCCNC(=O)c1cc2c(=O)[nH]c3ccccc3c2s1 | inactive: 6.1% | 
62 | CCOC(=O)/C=c1\s/c(=C\c2ccccc2OC)c(=O)n1CC(=O)N1CCOCC1 | inactive: -21.4% | 
63 | O=C(C[C@H]1C/C=C\CC[C@@H](Cc2ccc(F)cc2)C(=O)O[C@@H](c2ccccc2)CNC1=O)N[C@@H](CO)Cc1ccccc1 | inactive: -0.0995% | 
64 | C=CCC[C@@H](Cc1ccc(F)cc1)C(=O)OC[C@H](C)NC(=O)[C@@H](CC=C)CC(=O)N(CCO)Cc1ccccc1 | inactive: -7.22% | 
65 | CCC1=C(CC2NCCc3ccccc32)CC2c3cc(OC)c(OC)cc3CCN2C1 (configuration not stated) |  | active: 7.31 µM
66 | O=C(CCCN1C(=O)/C(=C/c2ccccc2)SC1=S)Nc1ccc(O)cc1 | inactive: -3.96% | 

Row | Structure (SMILES) | activity change, negative = cytotoxicity | Potency
67 | O=C(/C=C/c1ccco1)Nc1ccc(-c2nc3ccccc3[nH]2)cc1 |  | active: 23.1 µM
68 | COc1cc(C(=O)NCC(c2cccnc2)N2CCN(c3ccc(F)cc3)CC2)cc(OC)c1OC (configuration not stated) | inactive: 1.81% | 
69 | Cn1ncc2c(O/N=C(\N)c3ccc(C(C)(C)C)cc3)ncnc21 |  | active: 16.4 µM
70 | CCN1C(=O)/C(=C2/Sc3ccccc3N2CCCS(=O)(=O)O)SC1=S | inactive: -19.9% | 
71 | Cn1c2ccccc2c2cnn(CC(=O)NCCCN3CCN(c4ccccc4F)CC3)c(=O)c21 | inactive: 12.8% | 
72 | CCNC(=O)c1c(NC(=O)c2nc(S(=O)(=O)CC)ncc2Cl)sc2c1CCCC2 |  | active: 20.6 µM
73 | Cc1[nH]nc(N=CC2=C(O)CC(C)(C)CC2=O)c1-c1ccccc1 | inactive: -8.94% | 
74 | COc1ccc(C(CC(=O)N2CCN(c3ccccc3)CC2)c2c(OC)cc(OC)c3ccc(=O)oc23)cc1 (configuration not stated) | inactive: -15.9% | 
75 | Cc1ccc(N(CC2=NCCN2)c2cccc(O)c2)cc1 |  | inactive
76 | COC(=O)C1=C(C)NC(C)=C([N+](=O)[O-])C1c1ccccc1C(F)(F)F (configuration not stated) | inactive: -18.4% | 
77 | COc1ccc(C(=O)Nc2ccc3nc(N4CCCCC4)cc(C)c3c2)cc1OC | inactive: -21% | 
78 | CCCCCn1c(=O)[nH]c2cc(C(=O)N3CCN(c4ccccc4F)CC3)ccc2c1=O | inactive: -2.3% | 
79 | CCCN(CCC)CCNC(=O)c1cc2c(-c3ccc(Cl)cc3)nn(C)c2s1 |  | active: 23.1 µM
80 | COc1ccccc1NC(=O)NCCN1CCN(c2cccc(Cl)c2)CC1 | inactive: 1.21% | 
81 | COc1ccc([C@@H]2C[C@@H](c3ccccc3)Oc3cc(OC)c(OC)c(OC)c32)cc1 | inactive: 18.6% | 
82 | CC1CC=CC2C1C(=O)N(Cc1ccccc1)C2c1ccc2ccccc2c1Br (configuration not stated) | inactive: -4.31% | 
83 | COc1ccc(CC2C(=O)NC(C)C(=O)N(C)C3Cc4ccc(cc4)Oc4cc(ccc4O)CC(C(=O)NC(C)C(=O)NC(C)C(=O)N2C)N(C)C3=O)cc1 (configuration not stated) |  | active: 2.31 µM
84 | O=C1OC(c2ccccc2)(c2ccccc2)N2CCN(C(=O)NCc3ccc(F)cc3)CC12 (configuration not stated) | inactive: -15.2% | 
85 | CCCCN(CC)CCNC(=O)c1nn(-c2ccc(OC)cc2)c(=O)c2c1c1ccccc1n2C | inactive: -4.65% | 
86 | Cc1c(C(=O)N(Cc2ccc(N(C)C)cc2)C2CCS(=O)(=O)C2)oc2ccccc12 (configuration not stated) | inactive: -12.8% | 
87 | COc1ccc(Cl)cc1NC(=O)CN(C)C(=O)CCC(=O)c1cc(C)sc1C |  | active: 16.4 µM
